Experimental data published in publication PMC4336329 (PLoS ONE, 2015).
About 14,000 (4.5%) of roughly 310,000 compounds showed an effect of 50% or more. Effects have a minus sign here. The list shows a part of the results.

Biological target: human ether-à-go-go-related gene (hERG) potassium channel (human, UniProt Q12809)
Test: primary screen, population patch clamp on CHO cells stably expressing hERG
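Further: peak tail current of the secondary pulse compared with the same well before compound.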

Sequence of human ether-à-go-go-related gene (hERG) potassium channel (Q12809 whole entry, looked up): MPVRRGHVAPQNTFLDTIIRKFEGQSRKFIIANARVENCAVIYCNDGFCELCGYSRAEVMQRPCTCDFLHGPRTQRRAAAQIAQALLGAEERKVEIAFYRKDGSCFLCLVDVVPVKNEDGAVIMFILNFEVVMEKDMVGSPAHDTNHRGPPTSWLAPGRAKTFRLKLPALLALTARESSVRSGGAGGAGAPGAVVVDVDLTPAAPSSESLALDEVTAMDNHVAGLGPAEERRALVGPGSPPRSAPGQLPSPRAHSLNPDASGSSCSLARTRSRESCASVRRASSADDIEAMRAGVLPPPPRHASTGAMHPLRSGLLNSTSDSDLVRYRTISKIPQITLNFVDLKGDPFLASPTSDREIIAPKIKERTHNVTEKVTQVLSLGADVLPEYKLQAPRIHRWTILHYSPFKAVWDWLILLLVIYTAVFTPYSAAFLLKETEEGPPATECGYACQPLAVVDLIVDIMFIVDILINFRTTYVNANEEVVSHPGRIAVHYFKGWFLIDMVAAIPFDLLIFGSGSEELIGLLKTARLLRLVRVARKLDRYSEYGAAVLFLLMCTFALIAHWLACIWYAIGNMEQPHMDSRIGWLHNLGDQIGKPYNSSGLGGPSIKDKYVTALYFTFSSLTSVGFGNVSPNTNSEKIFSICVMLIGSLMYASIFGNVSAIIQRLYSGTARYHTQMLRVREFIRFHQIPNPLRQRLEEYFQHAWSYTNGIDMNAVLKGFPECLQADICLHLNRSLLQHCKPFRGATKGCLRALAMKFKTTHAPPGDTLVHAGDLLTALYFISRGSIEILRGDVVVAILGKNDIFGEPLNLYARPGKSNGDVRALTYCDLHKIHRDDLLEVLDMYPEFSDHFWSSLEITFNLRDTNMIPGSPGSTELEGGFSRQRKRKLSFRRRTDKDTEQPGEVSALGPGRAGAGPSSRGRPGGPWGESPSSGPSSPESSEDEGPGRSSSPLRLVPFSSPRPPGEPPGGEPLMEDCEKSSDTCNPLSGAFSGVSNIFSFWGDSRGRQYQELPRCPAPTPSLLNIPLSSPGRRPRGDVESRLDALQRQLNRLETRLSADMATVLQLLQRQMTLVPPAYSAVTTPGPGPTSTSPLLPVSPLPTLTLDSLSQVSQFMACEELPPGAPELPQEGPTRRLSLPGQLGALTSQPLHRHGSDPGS

| SMILES | hERG current change (%, negative = inhibition) at 10uM [%] |
| --- | --- |
| CC(Sc1ccc(Cl)cc1)C(=O)Nc1ccc(S(=O)(=O)N2CCOCC2)cc1 (stereo not shown) | -22.7 |
| COC(=O)C1=C(c2cc3ccccc3s2)C[C@@H]2CC[C@H]1N2C(=O)NC(C)C | -20.1 |
| Cc1ccc(-n2ncc3c2CCCC3NC(=O)CCC2=NNC(=O)CC2)cc1C (stereo not shown) | 0.4 |
| COCCCNC(=O)c1ccc2c(c1)CCN2S(C)(=O)=O | -38.5 |
| CC(CC1C(C#N)=C(N)OC2=C1C(=O)CCC2)c1ccccc1 (stereo not shown) | -10.6 |
| CCOC(=O)C1CCCN(C(=O)c2cc(CN3C(=O)c4ccccc4C3=O)ccc2OC)C1 (stereo not shown) | -9.55 |
| O=C(COC(=O)/C=C/c1ccc([N+](=O)[O-])cc1)NC1CCCCC1 | -8.72 |
| Cc1cc(C)c2nc(SCC(=O)NCCN3C(=O)CSC3=O)cc(C)c2c1 | -0.927 |
| CC1CCN(C(=O)COC(=O)c2ccc(=O)n(Cc3ccccc3)n2)CC1 | -0.635 |
| COc1ccccc1N1C(=NC(=O)COc2ccccc2)SC2CS(=O)(=O)CC21 (stereo not shown) | 15 |
| COc1cccc(NC(=O)CN(C)C(=O)c2c(C)nn(Cc3ccc(C)cc3)c2Cl)c1 | -7.18 |
| COc1ccc(-c2cc3c(=O)n(CC(=O)Nc4cccc(Cl)c4)ncn3n2)cc1 | 15.8 |
| CCc1ccc(NC(=O)C(=O)NCC2CCCN2S(=O)(=O)c2cccs2)cc1 (stereo not shown) | -32.2 |
| COc1ccc(CNC(=O)c2sc(=S)n(-c3ccccc3)c2N)cc1 | 4.31 |
| Cc1[nH]c2ccccc2c1C(=O)COC(=O)C1CC(O)CN1S(=O)(=O)c1ccc(Cl)cc1 (stereo not shown) | -0.342 |
| COc1cccc(C(=O)N/N=C(\C)c2ccc(NC(=O)Cc3ccccc3)cc2)c1OC | 22.1 |
| CCN(CC)C(c1ccc(F)cc1)c1nnnn1CC1CCCO1.Cl (stereo not shown) | 8.93 |
| Cc1ccc2oc(C(=O)N(Cc3ccc(N(C)C)cc3)C3CCS(=O)(=O)C3)c(C)c2c1 (stereo not shown) | -0.0732 |
| Cn1c(=O)c2c(ncn2CC(=O)N/N=C/C=C\c2ccccc2[N+](=O)[O-])n(C)c1=O | -22.1 |
| COc1ccc(S(=O)(=O)N/N=C(/C)c2ccncc2)c(OC)c1 | -10.7 |
| CCOc1ccc(OCCC(=O)OCC(=O)N2CCN(c3ccc(OC)cc3)CC2)cc1 | 6.92 |
| CCC1CCCCN1C(=S)NC(=O)c1ccc([N+](=O)[O-])cc1 (stereo not shown) | -41.7 |
| COc1ccc(OC)c(N2C(=O)NC(=O)/C(=C/c3ccc([N+](=O)[O-])s3)C2=O)c1 | 12.9 |
| Nn1cnnc1SCC(=O)N1CCc2ccccc2C1 | -12.8 |
| CCN(CC)C(=O)c1sc(NC(=O)C(C)C)c(C#N)c1C | 7.98 |
| COc1ccc(C)cc1N(CC(=O)NC1CCCC1)C(=O)CCC(=O)Nc1nc(C)cs1 | -19 |
| O=S(=O)(Nc1ccc(Cl)cn1)c1ccccc1 | 33.6 |
| CCCc1nc(-c2ccccc2)c(-c2ccc(OC)c(OC)c2)c(=O)[nH]1 | 8.35 |

| SMILES | hERG current change (%, negative = inhibition) at 10uM [%] |
| --- | --- |
| Cn1c(=O)cc(OCCCC(=O)NCc2ccc3c(c2)OCO3)c2ccccc21 | -22.2 |
| CCc1nnc(NC(=O)CCS(=O)(=O)Cc2ccccc2)s1 | 14.7 |
| CC(NC(=S)Nc1cccc(F)c1)C(c1cccs1)N1CCOCC1 (stereo not shown) | -7.64 |
| COc1ccc(C2=NN3C(=O)c4c(ccc(OC)c4OC)C3C2)cc1 (stereo not shown) | -2.8 |
| O=Nc1[nH]c(=O)c(/C=C(\O)c2ccccc2)nc1NO | -2.19 |
| CC(=O)C1=C(O)C(=O)N(Cc2ccccc2)C1c1ccc([N+](=O)[O-])cc1 (stereo not shown) | 13.7 |
| CCOC(=O)C1=C(C)N(C)C(=O)NC1c1cccc(O)c1 (stereo not shown) | 13.7 |
| Cc1nc2ccccn2c1C(=O)N/N=C/c1ccc(F)cc1 | 5.8 |
| COc1cccc(/C=N/NC(=O)CC2C(=O)NN=C2C)c1O (stereo not shown) | -19.6 |
| CN(C(=O)CSc1nnc(N)s1)c1c(N)n(Cc2ccccc2)c(=O)[nH]c1=O | 7.34 |
| C[C@@H]1CC[C@]2(O[C@H](CCO)C[C@H](O)[C@H]2O)O1 | 3.14 |
| CCOC(=O)c1ccccc1NC(=O)c1cccc([N+](=O)[O-])c1 | 12.5 |
| CC1CN(c2ccc([N+](=O)[O-])nc2)CC(C)O1 (stereo not shown) | -21.6 |
| COc1ccc(OCCCCn2c(CO)nc3ccccc32)cc1 | -24.5 |
| O=C(O)CCCCCNC(=O)/C(=C\c1ccco1)NC(=O)c1ccco1 | 11.7 |
| COc1ccc(CCNC(=O)CN2C(=O)COc3ccc(S(=O)(=O)N4CCCC4)cc32)cc1OC | 12.7 |
| CC1(C)Cc2c(sc3c2c(=N)n(Cc2ccco2)c(=O)n3CC(=O)Nc2ccccc2)CO1 | -1.1 |
| CN1CCN(S(=O)(=O)c2ccc(=O)[nH]c2)CC1 | 7.85 |
| CCCCCn1c(=O)c(C(=O)Nc2cccc(C)n2)c(O)c2ccccc21 | 26.4 |
| CCN1CCN(C(=O)/C=C/c2cccc(Cl)c2)CC1 | -18.7 |
| Cc1c(NC(=O)Nc2ccc(C(C)C)cc2)c(=O)n(-c2ccccc2)n1C | 8.78 |
| Cc1ccc(C(=O)NNC(=O)c2ccc(S(=O)(=O)N3CCOCC3)cc2)cc1 | 7.6 |
| Cc1ccc(-c2nc3ccccc3nc2-c2ccccc2)cc1 | 23.7 |
| CCOC(=O)/C(=N\Nc1ccccc1Cl)N1CCN(Cc2ccccc2)CC1 | -7.16 |
| O=C1CCC2(CC1)NC(=O)N(c1ccccc1)N2 | 15.9 |
| CSc1ccccc1NC(=O)c1cc(-c2cccs2)on1 | 14.5 |
| Cc1ccc2sc(N3CCN(C(=O)c4ccc([N+](=O)[O-])o4)CC3)nc2c1C | 3.89 |
